Measured values: PMC7819943, “Rice protein-binding microarrays: a tool to detect cis-acting elements near promoter regions in rice”
The list shows a part of the results.

biological target: T1, OsWOX13 (Oryza sativa, UniProt Q5QMM3 1-267); test: protein-binding microarray (RPBM); PBS, 2% BSA, 51.3 ng/ul salmon testes DNA, 50 uM zinc acetate, 200 nM TF, 25 C, 1 h; high values mean tight binding; details: protein: recombinant; tags: N-terminal polyhistidine and DsRed monomer fusion (pET32a); label: CyDye5-dUTP incorporated in the synthesized complementary strand; 3' TTTTT single-stranded linker to array surface; dsDNA, one strand shown
T1 sequence: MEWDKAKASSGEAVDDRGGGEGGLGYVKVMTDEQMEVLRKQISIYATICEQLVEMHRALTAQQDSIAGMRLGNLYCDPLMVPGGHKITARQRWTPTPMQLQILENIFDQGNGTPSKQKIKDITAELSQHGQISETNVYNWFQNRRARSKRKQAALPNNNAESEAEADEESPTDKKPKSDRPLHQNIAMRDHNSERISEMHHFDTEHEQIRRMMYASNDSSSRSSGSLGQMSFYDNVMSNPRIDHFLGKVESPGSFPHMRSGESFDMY
How it was run: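 An Axon 4000B scanner gave the binding signal as per-feature fluorescence intensity in arbitrary units. This followed washing of a custom Agilent array that had been incubated for 1 h at 25 °C with 200 nM protein in PBS, 2% BSA, salmon testes DNA and 50 µM zinc acetate. The proteins were transcription factors fused at the N-terminus to polyhistidine and DsRed, expressed in E. coli BL21-CodonPlus and purified on Ni–NTA.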

Row | Sequence | binding signal
1 | AACCATAAACAAATTAGCACAGGAGACTAATGCAACCCAGCGGAGTCACCTAGTGCAG | 6580 fluorescence intensity (a.u.)
2 | GCCTTATTTGCACTGATTTTGATAGTTGAGGAACCCGTTGCGGAGTCACCTAGTGCAG | 11200 fluorescence intensity (a.u.)
3 | CATCACTATAGAGTATAAATTGATGGCCGGTGATCAGTGGCGGAGTCACCTAGTGCAG | 6650 fluorescence intensity (a.u.)
4 | CGCAAACTGCGATTCAATTCAATCACTGGTATTACGGCTACGGAGTCACCTAGTGCAG | 31300 fluorescence intensity (a.u.)
5 | TGGAGGCACATTAATTAATTATTATCATGATCCATTTGCCCGGAGTCACCTAGTGCAG | 13000 fluorescence intensity (a.u.)
6 | ACGGAATGAACACTAATTTACTTAATACATAGAACCACGGCGGAGTCACCTAGTGCAG | 19400 fluorescence intensity (a.u.)
7 | GTGACGACCCGTTAATTATAGGCATATTAGAGGCCGTCACCGGAGTCACCTAGTGCAG | 7910 fluorescence intensity (a.u.)
8 | TCCATATTGTCTATTATTGCTTTCTGCAAAGAACTCTACTCGGAGTCACCTAGTGCAG | 3450 fluorescence intensity (a.u.)
9 | GCTAAACAGAATTGAGTACCTACTCCCTCTGAACCTGTAACGGAGTCACCTAGTGCAG | 10600 fluorescence intensity (a.u.)
10 | TGCTGACAGCAAGTGTCGAGGCTGATCATGATCACTGCGGCGGAGTCACCTAGTGCAG | 4960 fluorescence intensity (a.u.)
11 | GGCTGACTGGACAGGCTGACATGTGGGGCCACGTGGGTCCCGGAGTCACCTAGTGCAG | 11500 fluorescence intensity (a.u.)
12 | TGAAATGTAATTGTGATTTTATCTTGAAATGATCCGATGGCGGAGTCACCTAGTGCAG | 31400 fluorescence intensity (a.u.)
13 | AAAATAGTTAATACTTAATTAATCATGCAATAATACAAGCCGGAGTCACCTAGTGCAG | 7300 fluorescence intensity (a.u.)
14 | CCGGATTGGGATCCTCTGACTTTACTCAGAGAGCTATAGTCGGAGTCACCTAGTGCAG | 6180 fluorescence intensity (a.u.)
15 | GGCCCAATTGACAAGGTGGGCTTTCTCCTCGTGGCCCACACGGAGTCACCTAGTGCAG | 3640 fluorescence intensity (a.u.)
16 | CACTATTAATTACTCGTACATCATATTATCTATCCATTACCGGAGTCACCTAGTGCAG | 13200 fluorescence intensity (a.u.)
17 | TTTGAAAATTTAATTGCAACGAATTTAATGGTGCAATCGGCGGAGTCACCTAGTGCAG | 15900 fluorescence intensity (a.u.)
18 | AGCTAAATTTTGATCCCATGAATTTTCTATACTCTAGCAGCGGAGTCACCTAGTGCAG | 7030 fluorescence intensity (a.u.)
19 | TTATTTAATTTGGCATGGTTGACAGGATCAGACTTATTCACGGAGTCACCTAGTGCAG | 13100 fluorescence intensity (a.u.)
20 | ATTGTGATGGAATTCGTTAGTTTTGAAGTTGCAAACTGCACGGAGTCACCTAGTGCAG | 4110 fluorescence intensity (a.u.)
21 | CCATTAATTTCTACGTAAGCATTCGTAGCTATGGAGGAGTCGGAGTCACCTAGTGCAG | 10300 fluorescence intensity (a.u.)
22 | AAAATGACTGAAATTTGGATCTAAATTTTGGATCTAAACACGGAGTCACCTAGTGCAG | 23400 fluorescence intensity (a.u.)
23 | AATTGATGACTCTGTAATGCAGGTCAAGTCGATCAGGTAACGGAGTCACCTAGTGCAG | 3470 fluorescence intensity (a.u.)
24 | CAGCACATGATTAGAATATCATCTCAATCTCAATCTGTACCGGAGTCACCTAGTGCAG | 21600 fluorescence intensity (a.u.)
25 | CGGATGATTATTTGTTTCCTAGACAAACAGTCAAACACACCGGAGTCACCTAGTGCAG | 26700 fluorescence intensity (a.u.)
26 | TTTTCACGATAATTATGTGGTAACCGCCAAACCATGGGGTCGGAGTCACCTAGTGCAG | 15400 fluorescence intensity (a.u.)
27 | TTCAAGTAATTGTCATGACGCTTACCTCTATAAGAAGGCACGGAGTCACCTAGTGCAG | 10000 fluorescence intensity (a.u.)

Row | Sequence | binding signal
28 | GCATATACAATTTGGCCCAAATTAACTTGATTTATCTGGGCGGAGTCACCTAGTGCAG | 8350 fluorescence intensity (a.u.)
29 | TCAAGTGATTTTGCCTAGACACAAGAGTCCACGTGGTTGGCGGAGTCACCTAGTGCAG | 5480 fluorescence intensity (a.u.)
30 | CGGATTAATTAGGCTTAATAAATTCATCTCGCAGTTTCCTCGGAGTCACCTAGTGCAG | 50800 fluorescence intensity (a.u.)
31 | GTGATTTGCACACTTGATCTAACACAAGTTTGTTCTCGCTCGGAGTCACCTAGTGCAG | 6300 fluorescence intensity (a.u.)
32 | GGTGAATTGAATGGTTGATTGCCTATCTCATCTTCCGCAGCGGAGTCACCTAGTGCAG | 64100 fluorescence intensity (a.u.)
33 | TAGATTTAATTACAACGAATACAACAGAGCAATCGGATTGCGGAGTCACCTAGTGCAG | 14400 fluorescence intensity (a.u.)
34 | TGACAAATAATTAATTGTACATATTAGAAGTAGTATAAAGCGGAGTCACCTAGTGCAG | 23600 fluorescence intensity (a.u.)
35 | ATCTGTAAGTGATATGTATTAATTAAGAAATCATATCGGACGGAGTCACCTAGTGCAG | 7170 fluorescence intensity (a.u.)
36 | ATATAAAATGTGACCGACTGATTGTATAAATAGGATAGAACGGAGTCACCTAGTGCAG | 5410 fluorescence intensity (a.u.)
37 | ACTACAGATTGCAACTAAAGTATTCCGTTCATCCTCCTACCGGAGTCACCTAGTGCAG | 5330 fluorescence intensity (a.u.)
38 | CTAATAAATTAGGTACCACCGTATTATGTACTTCCTCCATCGGAGTCACCTAGTGCAG | 11700 fluorescence intensity (a.u.)
39 | ATTATTAATTTCCCTTCCTATTTGAGTGCTTCAAAATAAACGGAGTCACCTAGTGCAG | 3690 fluorescence intensity (a.u.)
40 | AAGGCTGATTATAAAATAATTCTGTAACTGCCTTGGCCTGCGGAGTCACCTAGTGCAG | 29500 fluorescence intensity (a.u.)
41 | GAGAATTTGGTGCTAATCACACTCCCTGCCATTGGAGGATCGGAGTCACCTAGTGCAG | 4930 fluorescence intensity (a.u.)
42 | TAAATTAGGACGGAATGACTTTGATTTTCACACATGCTGGCGGAGTCACCTAGTGCAG | 8030 fluorescence intensity (a.u.)
43 | CTGTAAATAAATTAATTGAACTGCACGTTCATAATCATAACGGAGTCACCTAGTGCAG | 14200 fluorescence intensity (a.u.)
44 | TACTTATAAATTAATTTTAATTTTCTAATAAGCCAAATAACGGAGTCACCTAGTGCAG | 24900 fluorescence intensity (a.u.)
45 | GGAGAATCTCAATTAGCTTGGGCAAAAGGCAAATTGGTCGCGGAGTCACCTAGTGCAG | 3550 fluorescence intensity (a.u.)
46 | TAATTAATTAAATTTTAATTATTATGAACTTGAGAAATGACGGAGTCACCTAGTGCAG | 39600 fluorescence intensity (a.u.)
47 | TATAGATTAATTGATATAGTTGTATACAAATTTCAATTATCGGAGTCACCTAGTGCAG | 26900 fluorescence intensity (a.u.)
48 | TAATTAATACTGAATTAATTATGCGTTAATAGCCCATCTCCGGAGTCACCTAGTGCAG | 19400 fluorescence intensity (a.u.)
49 | CATCTATATTACCTGTTCTAAATTTATATGGATAACTTAACGGAGTCACCTAGTGCAG | 3370 fluorescence intensity (a.u.)
50 | AAATGTAATTAATCTGAAACAACCTCCGTAAACTTCCCAACGGAGTCACCTAGTGCAG | 5580 fluorescence intensity (a.u.)
51 | CCATTATAAAACTAATAATCAATCTAAATGGATAGCGATCCGGAGTCACCTAGTGCAG | 11200 fluorescence intensity (a.u.)
52 | CCATGACTGGTACTCCTTATCACAAGGAACATTTCTACCGCGGAGTCACCTAGTGCAG | 21300 fluorescence intensity (a.u.)
53 | GCCGAAATGTACTAATTGTACGCGACGACGACTAGTTTATCGGAGTCACCTAGTGCAG | 6770 fluorescence intensity (a.u.)
54 | CCATAATTAGCCATAAGTGCTACAGTAACCTACATGTGCTCGGAGTCACCTAGTGCAG | 22900 fluorescence intensity (a.u.)
